In the RNAGym collection of RNA variant scans (doi:10.7554/elife.90254):
Read counts are not given, so values of variants with three or more changes are uncertain.

B1: LINE1-mini (parent)
chain: GGCAGAGCUCAACACAGCGUGGCAAAGUGGCUGUGGCUAGACUGCC

Variants of: B1
Assay: self-cleavage, relative activity (ratio to wild type); higher = more cleavage; in vitro, sequencing; the parent is a self-cleaving ribozyme

Variant	self-cleavage
GGAAGACCUCAACGCAGCGUGGCAAAGUGGCUGUGGCUAGACUGCA [C3A G7C A14G C46A]	0.04
GGAAGAUCUCAAAACAGCCUGGCAAAGUGGUUGUGGCUAGACUGCC [C3A G7U C13A G19C C31U]	0.13
GGAAGAUCUCUACACAGCGUGGCAAAGUGGUUGUGUCUAGAAUGCC [C3A G7U A11U C31U G36U C42A]	0.03
GGAAGAUCUGAACAAAGCGUGGCAAAGUGGCUGUUGCUAGACUGCC [C3A G7U C10G C15A G35U]	0.03
GGAAGAGCUCAACACAGCGUUGCAAAGUGGCUGUGGCUAGACUGCA [C3A G21U C46A]	1.01
GGAAGAGCUCAACACAACGUGGCAAAGUGGCUGUGGCUAGACUACC [C3A G17A G44A]	0.09
GGAAGAGCUCAACACAACGUGGCAAAGUCUUGGUGGCUAGACUGCC [C3A G17A G29C G30U C31U U32G]	0.23
GGAAGAACGCAACACAGCGUGGCAAAGUGGCUGUGGCUAGACUGCC [C3A G7A U9G]	1.02
GGAAGAGCUCAACACAGCUUGGUAAAGUGACUGUGGCUAGCCUGCC [C3A G19U C23U G30A A41C]	0.09
GGAAGAGCUCAACACAACGUGGCAAAGUGGCUGUGGCUGGGCUGCC [C3A G17A A39G A41G]	0.02
GGAAGAGCUCAACACAUCGUGGCAAAGUGGCUGUGGCUAGACCGCC [C3A G17U U43C]	0.17
GGAAGAAAUCAACACAGCGUGGCAAAGUGGCUGUGGCUAGACUGCC [C3A G7A C8A]	0.5
GGAAGAGCUCAACACAGCGUGUCAAAGUGGCUGUGGCUAGAUUGCC [C3A G22U C42U]	0.15
GGAAGAGCUCAACACAUCGUGGGAAUGCGGCUGUGGCUAGACUGCC [C3A G17U C23G A26U U28C]	0.59
GGAAGAGCUCAACACAGCGUCGCAAAGUGUCUGUGGCUAGACUUCC [C3A G21C G30U G44U]	2.71
GGAAGAGCUCAACACAGCCUGGCAAAGUGGCUGUGGCUAGAGUCCC [C3A G19C C42G G44C]	0
GGAAGAUAUCAACACAGCGUGGCAAAGUGACUGUGGCUAGACUGCU [C3A G7U C8A G30A C46U]	1.88
GGAAGAGCUCAACACAGCGUAGCUAAGUGGCUCUGGCUAGAAUGCC [C3A G21A A24U G33C C42A]	0.19
GGAAGAGCUCAACACAGCGUGCCAAAGUGGCCGUGGCUAGACUGCC [C3A G22C U32C]	0.16

Variant	self-cleavage
GGAAGAACUCAACACAGCGAGGCAAAGUGGCUGUGGCAAGACUGCC [C3A G7A U20A U38A]	0.08
GGAAGAGCUCAACACAGCGUUGCAAAGUGGCUGUGGCUCGACUGCC [C3A G21U A39C]	0.03
GGAAGAGCUCAACACAGCGUUGCAAAGUGGCUGUGGCUAGCCUGCC [C3A G21U A41C]	0.08
GGAAGAUCUCAACUAAGCGUGGUAAAGUGGCUGUAGCUAGACUGCC [C3A G7U A14U C15A C23U G35A]	0.34
GGAAGAGCUCAACACAGCCUGGCGAUGUGGCUGUGGCUAGACUGCC [C3A G19C A24G A26U]	0.15
GGAAGAGCUCAACACAUCGUGGCAAACAGGCUGUGGCUAGACUGCA [C3A G17U G27C U28A C46A]	0.16
GGAAGAGCUCAACACAUCGUGGCAAAGUGGCUCUGGCUAAACUGCC [C3A G17U G33C G40A]	0.14
GGAAGAUCUCAACACAGCGUGGCAAAGUCGCUGUCGCUAGACUGCC [C3A G7U G29C G35C]	0.06
GGAAGAUCUCAACACAGCGUGGCAAAGUGGCUGUGGCUAGACUGCU [C3A G7U C46U]	0.4
GGAAGAUCUCAACACAGCGUGGCAAAGUGGCUGUGGCUAGACUGCG [C3A G7U C46G]	0.18
GGAAUAGCUCAACAAAGCGUGGCAAAGUGGCUGUUGCUAGUCUGCC [C3A G5U C15A G35U A41U]	0.1
GGAAGACCUCAACACAGCGUGUAAAAGUGGCUUUGGCUAGACUGCC [C3A G7C G22U C23A G33U]	0.34
GGAAGAUCUCAACACAGCGUGGCAACGUGCCUGUGGCUAGACUGCC [C3A G7U A26C G30C]	0.12
GGAAGAGCUCAACACAGCAUGGGAAAGUGGCUGUGGCUAGACUACC [C3A G19A C23G G44A]	0.5
GGAAGAACUCAACACUGCGUGGCAAAGUGGCUGUGGUUAGACUGCC [C3A G7A A16U C37U]	0.12
GGAAGAGCUCAACACAGCGUGUUAAAGUGGCUGUGGCUAGACUCCC [C3A G22U C23U G44C]	0.73
GGAAGAGCUCAACACAGCCUGGCAAAGUGGCUGGGGCGAGACUCCC [C3A G19C U34G U38G G44C]	0.01
GGAAGAGCUCAACACAACGUGGCAAAGUGGCUGCGGCUAGACUGCC [C3A G17A U34C]	0.08
GGAAGAGCUCAACACAACGUGGCAAAGUGGCUGAGGCUAGACUGCC [C3A G17A U34A]	0.17

Variant	self-cleavage
GGAAGAGCUCAACACAUCGUGGCAAAGUGGCUGUGUCUAGACUUCC [C3A G17U G36U G44U]	0.08
GGAAUACCUCAACACAGCGUGGCAAAGUGGCUGUGGCUAGGCUAAC [C3A G5U G7C A41G G44A C45A]	0.04
GGAAGACCUCAACACAGCGUGGUAAAGUGGCUGUGGCUAGACUACC [C3A G7C C23U G44A]	0.04
GGAAGAUCUCAACACCGCGUGGCAAAGUGGCUGUGGCUAGUCUGCC [C3A G7U A16C A41U]	0.3
GGAAGAGCUCAACACACCGUGGCAAAGUGGCUGUGGCUAGACUGCU [C3A G17C C46U]	0.13
GGAAGAGCUCAACACAGCGUUGCAAAGUGACUGUGGCUAGACUGCC [C3A G21U G30A]	0.89
GGAAGAGCUCAACACAGCGUUGCAAAGUGCCUGUGGCUAGACUGCC [C3A G21U G30C]	2.43
GGAAUAGCUCAACACAGCGUGGCAAAGUGGCUGUUGCUAGACUGCC [C3A G5U G35U]	0.13
GGAAGAACUCAACGCAGCGUGGCAAAGUAGCUGUGGCUAGACUGCC [C3A G7A A14G G29A]	0.67
GGAAGAACUCAGCACAGCGUGGCAAAGUGGCUAUGGCUAGACUGCC [C3A G7A A12G G33A]	0.04
GGAAGAGCUCAACACAGCGUGUCAAAGUGGCUGUGGCUAGACUGAC [C3A G22U C45A]	0.36
GGAAGACCUGGACACAGCGUGGCAAAGUGGCUGUGGCUAGCCUGCC [C3A G7C C10G A11G A41C]	0.02
GGAAGAACUCAUCACAGCGUGGCAUAGUGGCUGUGGCGAGACGGCC [C3A G7A A12U A25U U38G U43G]	0.06
GGAAGAGCUCAACACAGCGUUGCAAAUUGGCUGUGGCUAAACUGCC [C3A G21U G27U G40A]	0.08
GGAAGAACUCAACACAGCGUGGGUAAGUGCUUGUGGCUAGACUGCC [C3A G7A C23G A24U G30C C31U]	0.2
GGAAGAACUCAAGACAGCGUGCCAAAGUGGCUGUGGCUAGACUGCC [C3A G7A C13G G22C]	0.77
GGAAGAUCUCAACACUGCGUGGCAAAGUGGCUGUGGCUAGACUGCC [C3A G7U A16U]	0.32
GGAAGAGCUCAACACACCGGGGCAAAGUGGCUGUGGCUAGACUGCC [C3A G17C U20G]	0.16
